Assay results as given in the supplement of paper PMC4967469.
IC50 is the fitted dose that halves viability relative to control wells, and lower means more sensitive; fits outside the tested doses are given as limits. AUC sums up the same curve from the lowest dose to the 256-fold higher top dose; the more sensitive the line, the further below 1. For part of these data: A top dose marked as inferred comes from the curve model; the source does not state it.

Columns and labels:
Test in all cases: Viability of human cancer cell lines after 72 h of drug (GDSC screen)
[1] = compound: O=C(NOCC1CC1)c1ccc(F)c(F)c1Nc1ccc(I)cc1Cl [CI-1040]; conditions: top dose 10 µM; top dose inferred
Description: (§1)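 Human cancer cell lines in 384-well plates, medium with 10% serum, drug for 72 h over a 256-fold dose range (nine 2-fold or five 4-fold steps up to the top dose). Adherent lines were fixed and stained with the nucleic acid dye Syto60, suspension lines read with resazurin; signal relative to control wells, capped at 0 and 100%. One two-parameter sigmoid per drug and line, fitted in a mixed model over all curves with the slope shared within a line.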

[2] = compound: COc1cc2c(Oc3ccc(NC(=O)C4(C(=O)Nc5ccc(F)cc5)CC4)cc3F)ccnc2cc1OCCCN1CCOCC1 [XL-880]; conditions: top dose 5.12 µM; top dose inferred
Description: as §1

[3] = compound: CCCC[C@@H](C=O)NC(=O)[C@H](CC(C)C)NC(=O)[C@H](CC(C)C)NC(=O)OCc1ccccc1 [Z-LLNle-CHO]; conditions: top dose 2.56 µM; top dose inferred
Description: as §1

[4] = compound: Oc1ccc2ccccc2c1SSc1c(O)ccc2ccccc12 [IPA-3]; conditions: top dose 32 µM; top dose inferred
Description: as §1

[5] = compound: Cn1nnc2c(C(N)=O)ncn2c1=O [Temozolomide]; conditions: top dose 30 µM
Description: as §1

[6] = compound: CN1CCc2c(c3ccccc3n2Cc2ccc(C(=O)NO)cc2)C1 [Tubastatin A]; conditions: top dose 20 µM
Description: as §1

[7] = compound: CN(C)C/C=C/C(=O)Nc1ccc(C(=O)Nc2cccc(Nc3nccc(-c4cccnc4)n3)c2)cc1 [ZG-10]; conditions: top dose 10 µM; top dose inferred
Description: as §1

[8] = compound: CCC(=O)N1CCN(c2ccc(-n3c(=O)ccc4cnc5ccc(-c6cnc7ccccc7c6)cc5c43)cc2C(F)(F)F)CC1 [JW-7-52-1]; conditions: top dose 1.2 µM; top dose inferred
Description: as §1

[9] = compound: CO[C@H]1C[C@@H]2CC[C@@H](C)[C@@](O)(O2)C(=O)C(=O)N2CCCC[C@H]2C(=O)O[C@H]([C@H](C)C[C@@H]2CC[C@@H](O)[C@H](OC)C2)CC(=O)[C@H](C)/C=C(\C)[C@@H](O)[C@@H](OC)C(=O)[C@H](C)C[C@H](C)/C=C/C=C/C=C/1C [Rapamycin]; conditions: top dose 0.1 µM; top dose inferred
Description: as §1

| Cell Line | AUC [1] | IC50 [1] [µM] | AUC [2] | IC50 [2] [µM] | AUC [3] | IC50 [3] [µM] | AUC [4] | IC50 [4] [µM] | AUC [5] | IC50 [5] [µM] | AUC [6] | IC50 [6] [µM] | AUC [7] | IC50 [7] [µM] | AUC [8] | IC50 [8] [µM] | AUC [9] | IC50 [9] [µM] |
| --- | --- | --- | --- | --- | --- | --- | --- | --- | --- | --- | --- | --- | --- | --- | --- | --- | --- | --- |
| NCI-H1648 (lung adenocarcinoma, adherent) | 0.902 | > 10 | 0.712 | 1.33 | 0.863 | 2.44 | 0.979 | > 32 | 0.984 | > 30 | 0.945 | > 20 | 0.776 | 4.23 | 0.406 | 0.0408 | 0.85 | 0.0829 |
| NCI-H1395 (lung adenocarcinoma, adherent) | 0.971 | > 10 | 0.665 | 1.07 | 0.946 | > 2.56 | 0.972 | > 32 | 0.974 | > 30 | 0.964 | > 20 | 0.765 | 4.83 | 0.841 | > 1.2 | 0.903 | > 0.1 |
| NCI-H226 (lung squamous cell carcinoma, adherent) | 0.88 | > 10 | 0.51 | 0.342 | 0.857 | 2.26 | 0.771 | 12.9 | 0.986 | > 30 | 0.957 | > 20 | 0.717 | 2.66 | 0.937 | > 1.2 | 0.983 | > 0.1 |
| NCI-H524 (small cell lung carcinoma, suspension) | 0.967 | > 10 | 0.761 | 1.64 | 0.921 | > 2.56 | 0.987 | > 32 | 0.979 | > 30 | 0.988 | > 20 | 0.646 | 1.51 | 0.777 | 0.431 | 0.92 | > 0.1 |
| CAS-1 (glioma, adherent) | 0.931 | > 10 | 0.649 | 0.966 | 0.871 | > 2.56 | 0.981 | > 32 | 0.978 | > 30 | 0.97 | > 20 | 0.812 | 7.97 | 0.923 | > 1.2 | 0.949 | > 0.1 |
| NCI-H747 (large intestine, adherent) | 0.769 | 4.61 | 0.72 | 1.56 | 0.745 | 0.963 | 0.761 | 13.8 | 0.98 | > 30 | 0.91 | > 20 | 0.766 | 4.49 | 0.371 | 0.0305 | 0.837 | 0.0887 |
| A498 (kidney, adherent) | 0.878 | > 10 | 0.972 | > 5.12 | 0.903 | > 2.56 | 0.973 | > 32 | 0.975 | > 30 | 0.976 | > 20 | 0.758 | 5.19 | 0.979 | > 1.2 | 0.979 | > 0.1 |
| SF268 (glioma, adherent) | 0.905 | > 10 | 0.636 | 0.785 | 0.783 | 1.17 | 0.866 | > 32 | 0.96 | > 30 | 0.915 | > 20 | 0.712 | 2.61 | 0.546 | 0.101 | 0.899 | > 0.1 |
| LS-513 (large intestine, adherent) | 0.595 | 1.15 | 0.642 | 0.803 | 0.799 | 1.29 | 0.984 | > 32 | 0.973 | > 30 | 0.949 | > 20 | 0.865 | 9.43 | 0.711 | 0.305 | 0.978 | > 0.1 |
| NOMO-1 (acute myeloid leukaemia, suspension) | 0.287 | 0.142 | 0.491 | 0.301 | 0.891 | > 2.56 | 0.717 | 9.04 | 0.98 | > 30 | 0.846 | 17.6 | 0.608 | 1.29 | 0.735 | 0.39 | 0.847 | 0.089 |
| OCI-AML5 (acute myeloid leukaemia, suspension) | 0.745 | 2.91 | 0.253 | 0.0676 | 0.821 | 1.32 | 0.906 | > 32 | 0.978 | > 30 | 0.783 | 7.65 | 0.63 | 1.38 | 0.726 | 0.308 | 0.935 | > 0.1 |
| TE-12 (oesophagus, suspension) | 0.756 | 4.1 | 0.692 | 1.25 | 0.861 | > 2.56 | 0.983 | > 32 | 0.98 | > 30 | 0.98 | > 20 | 0.689 | 2.39 | 0.387 | 0.0342 | 0.761 | 0.0429 |
| NCI-H1155 (large cell lung carcinoma, suspension) | 0.933 | > 10 | 0.538 | 0.398 | 0.96 | > 2.56 | 0.979 | > 32 | 0.983 | > 30 | 0.985 | > 20 | 0.87 | 6.6 | 0.817 | 0.525 | 0.964 | > 0.1 |
| EW-1 (Ewing sarcoma, semi-adherent) | 0.938 | > 10 | 0.601 | 0.593 | 0.821 | 1.33 | 0.702 | 6.99 | 0.988 | > 30 | 0.82 | 10.3 | 0.663 | 1.7 | 0.219 | 0.0123 | 0.353 | 0.00254 |
| RL (B-cell lymphoma, suspension) | 0.89 | 9.92 | 0.532 | 0.389 | 0.938 | > 2.56 | 0.852 | 21.7 | 0.989 | > 30 | 0.834 | 11.5 | 0.723 | 2.52 | 0.982 | > 1.2 | 0.99 | > 0.1 |
| SK-N-DZ (neuroblastoma, adherent) | 0.929 | > 10 | 0.718 | 1.31 | 0.865 | 2.21 | 0.758 | 11 | 0.987 | > 30 | 0.987 | > 20 | 0.835 | 6.47 | 0.623 | 0.163 | 0.983 | > 0.1 |
| GI-ME-N (neuroblastoma, adherent) | 0.793 | 6.55 | 0.464 | 0.247 | 0.86 | > 2.56 | 0.977 | > 32 | 0.867 | > 30 | 0.626 | 3.17 | 0.503 | 0.637 | 0.609 | 0.166 | 0.936 | > 0.1 |
| EC-GI-10 (oesophagus, adherent) | 0.894 | > 10 | 0.81 | 2.66 | 0.957 | > 2.56 | 0.979 | > 32 | 0.936 | > 30 | 0.989 | > 20 | 0.668 | 1.82 | 0.974 | > 1.2 | 0.989 | > 0.1 |
| MZ1-PC (pancreas, adherent) | 0.908 | > 10 | 0.397 | 0.156 | 0.831 | 2.19 | 0.746 | 12.3 | 0.977 | > 30 | 0.858 | > 20 | 0.744 | 3.78 | 0.49 | 0.07 | 0.931 | > 0.1 |
| COLO-684 (endometrium, suspension) | 0.92 | > 10 | 0.698 | 1.25 | 0.837 | 2.02 | 0.85 | 29 | 0.962 | > 30 | 0.933 | > 20 | 0.644 | 1.64 | 0.461 | 0.0579 | 0.747 | 0.0354 |
| LB373-MEL-D (melanoma, adherent) | 0.843 | 6.86 | 0.821 | 2.88 | 0.733 | 0.725 | 0.949 | > 32 | 0.989 | > 30 | 0.975 | > 20 | 0.821 | 5.62 | 0.61 | 0.149 | 0.96 | > 0.1 |
| SBC-1 (small cell lung carcinoma, suspension) | 0.988 | > 10 | 0.938 | > 5.12 | 0.937 | > 2.56 | 0.988 | > 32 | 0.983 | > 30 | 0.781 | 8 | 0.56 | 0.908 | 0.585 | 0.127 | 0.781 | 0.0399 |
| K5 (thyroid, adherent) | 0.426 | 0.396 | 0.695 | 1.1 | 0.894 | > 2.56 | 0.988 | > 32 | 0.932 | > 30 | 0.969 | > 20 | 0.797 | 4.5 | 0.465 | 0.0603 | 0.769 | 0.0361 |
| DMS-114 (small cell lung carcinoma, adherent) | 0.921 | > 10 | 0.63 | 0.772 | 0.968 | > 2.56 | 0.972 | > 32 | 0.979 | > 30 | 0.983 | > 20 | 0.736 | 3.31 | 0.712 | 0.329 | 0.743 | 0.035 |
| CL-11 (large intestine, adherent) | 0.511 | 0.67 | 0.822 | 3.5 | 0.929 | > 2.56 | 0.98 | > 32 | 0.986 | > 30 | 0.987 | > 20 | 0.986 | > 10 | 0.922 | > 1.2 | 0.979 | > 0.1 |
| NCI-SNU-5 (stomach, suspension) | 0.796 | 4.75 | 0.491 | 0.303 | 0.877 | > 2.56 | 0.986 | > 32 | 0.972 | > 30 | 0.989 | > 20 | 0.883 | > 10 | 0.62 | 0.161 | 0.965 | > 0.1 |
| TE-5 (oesophagus, adherent) | 0.842 | 8.66 | 0.842 | 4.43 | 0.749 | 0.943 | 0.909 | > 32 | 0.981 | > 30 | 0.983 | > 20 | 0.699 | 2.49 | 0.417 | 0.043 | 0.838 | 0.0826 |
| EKVX (lung adenocarcinoma, adherent) | 0.816 | > 10 | 0.85 | > 5.12 | 0.944 | > 2.56 | 0.9 | > 32 | 0.949 | > 30 | 0.967 | > 20 | 0.712 | 5.08 | 0.669 | 0.383 | 0.728 | 0.0608 |
